The values that follow come from the supplement of paper PMC4604168 (melanoma cell lines).

The other results are listed elsewhere or left out. Many values rest on one well or one pass, so single values are uncertain.
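Also: cells treated in 1,536-well plates, then fixed and DAPI-stained, with nuclei counted from automated high-throughput microscope images.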

In this assay the test system is A2058. The experiment in a line: cell count relative to DMSO control; melanoma cells; higher = more viable cells. The settings on record: library dose: standard library concentration; 72 h.
In turn, `O=C(O)c1ccc(-c2c[nH]c3ncc(-c4ccccc4)cc23)cc1C1CCCC1` + CCc1ccc(CCOc2ccc(CC3SC(=O)NC3=O)cc2)nc1 [pioglitazone] (first compound 0.8 µM, partner dose 10 µM) came in with a cell count of 91.1%. The same measure for `Cn1cncc1[C@@](N)(c1ccc(Cl)cc1)c1ccc2c(c1)c(-c1cccc(Cl)c1)cc(=O)n2C` [tipifarnib] + Oc1cc(-c2nc(-c3ccccc3)[nH]c2-c2ccncc2)ccc1Cl [L779450] (first compound 0.05 µM, partner dose 1 µM): 74.2%; for `C[C@@H]1CCN(C(=O)CC#N)C[C@@H]1N(C)c1ncnc2[nH]ccc12` + O=c1cc(-c2cccc3c2Sc2ccccc2S3)oc(N2CCOCC2)c1 [KU55933] (first compound 5 µM, partner dose 5 µM): 89.9%.

On to `O=C(Nc1cccc(Cl)c1)Nc1ncc(CCNc2ncnc3ccsc23)s1` + CCN(CC)CCCCNc1ncc2cc(-c3cc(OC)cc(OC)c3)c(NC(=O)NC(C)(C)C)nc2n1 [PD173074] (first compound 0.004 µM, partner dose 0.5 µM), for which the cell count is 83.9%. The molecule `O=c1[nH]nc(Sc2ncc([N+](=O)[O-])s2)n1-c1ccc2c(c1)OCCO2` + Cn1cc(/C=C2\C(=O)Nc3cccnc32)c2ccccc21 [GW441756] (first compound 1 µM, partner dose 2 µM) displayed a cell count of 99.7%. The result for `CC1(C)NC(=O)N(c2ccc([N+](=O)[O-])c(C(F)(F)F)c2)C1=O` [nilutamide] + Oc1nc(-c2ccc(C(F)(F)F)cc2)nc2c1CSCC2 [XAV939] (first compound 5 µM, partner dose 10 µM) reads 102%.
